The whole screen tested about 310,000 compounds, of which about 2,200 (0.71%) showed an effect of 50% or more. Effects have a minus sign here. The list shows a part of the results.
Target: human ether-à-go-go-related gene (hERG) potassium channel (human, UniProt Q12809)
Assay: primary screen, population patch clamp on CHO cells stably expressing hERG

Sequence of human ether-à-go-go-related gene (hERG) potassium channel (Q12809 whole entry, looked up): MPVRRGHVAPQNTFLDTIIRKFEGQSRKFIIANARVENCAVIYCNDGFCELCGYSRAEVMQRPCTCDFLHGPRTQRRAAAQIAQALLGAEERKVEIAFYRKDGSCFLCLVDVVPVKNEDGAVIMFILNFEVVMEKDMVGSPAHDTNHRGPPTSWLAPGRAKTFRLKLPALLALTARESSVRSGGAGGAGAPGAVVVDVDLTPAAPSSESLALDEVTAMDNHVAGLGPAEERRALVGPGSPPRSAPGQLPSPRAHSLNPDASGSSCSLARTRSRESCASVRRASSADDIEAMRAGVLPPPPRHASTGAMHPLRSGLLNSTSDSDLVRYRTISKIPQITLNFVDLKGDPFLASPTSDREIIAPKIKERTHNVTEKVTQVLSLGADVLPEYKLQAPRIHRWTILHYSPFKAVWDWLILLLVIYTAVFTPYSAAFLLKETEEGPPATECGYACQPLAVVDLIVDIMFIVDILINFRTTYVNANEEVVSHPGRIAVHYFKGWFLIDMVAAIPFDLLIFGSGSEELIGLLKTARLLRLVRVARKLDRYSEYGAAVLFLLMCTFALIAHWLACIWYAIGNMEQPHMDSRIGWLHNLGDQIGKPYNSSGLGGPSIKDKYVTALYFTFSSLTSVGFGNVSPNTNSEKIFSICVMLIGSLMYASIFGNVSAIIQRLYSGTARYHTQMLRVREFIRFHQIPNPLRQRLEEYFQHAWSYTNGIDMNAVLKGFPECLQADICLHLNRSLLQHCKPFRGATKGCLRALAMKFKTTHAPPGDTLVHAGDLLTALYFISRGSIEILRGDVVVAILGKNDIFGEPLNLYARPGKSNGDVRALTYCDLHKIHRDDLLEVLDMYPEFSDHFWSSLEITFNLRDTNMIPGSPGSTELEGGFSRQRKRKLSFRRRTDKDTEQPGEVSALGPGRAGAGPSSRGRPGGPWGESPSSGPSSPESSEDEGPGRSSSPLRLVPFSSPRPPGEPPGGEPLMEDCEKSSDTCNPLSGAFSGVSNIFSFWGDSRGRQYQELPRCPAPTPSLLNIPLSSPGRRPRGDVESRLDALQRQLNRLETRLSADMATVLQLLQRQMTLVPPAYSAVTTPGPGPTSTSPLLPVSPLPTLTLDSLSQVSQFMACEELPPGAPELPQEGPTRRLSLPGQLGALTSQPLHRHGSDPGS

| Compound | hERG current change (%, negative = inhibition) at 1uM |
| --- | --- |
| CC(C)Oc1ccccc1/C=N/NC(=O)C1CCCC1 | 10.3% |
| CN1CCN(C(=O)c2cc(=O)c3cc(Cl)ccc3o2)CC1 | 2.6% |
| COc1ccc(N=Cc2c(O)c3ccccc3oc2=O)cc1 | 9.27% |
| CN1C(=O)c2ccccc2Sc2ccc(NC(=O)NC3CC3)cc21 | 5.34% |
| Cc1ccccc1NC(=O)Cn1cnc2c(oc3nc4c(cc32)CCCC4)c1=O | 11.3% |
| COc1ccccc1N1CCN(C(=O)c2cc(N3C(=O)C4C5CCC(C5)C4C3=O)ccc2Cl)CC1 (stereo not shown) | 5.71% |
| Cc1ccc(NC(=O)C2CCN(S(=O)(=O)c3ccc4c(c3)CCCC(=O)N4)CC2)c(Br)c1 | 1.67% |
| CN(C)C(C)(C)C#CCC(c1ccccc1)c1ccccc1.Cl | 5.49% |
| CCc1noc(C)c1C(=O)N1CCN(c2cccc(C)c2C)CC1 | -3.77% |
| CC1CCCN(c2ccc(C(=O)NCCc3ccccc3)cn2)C1 (stereo not shown) | -5.24% |
| CC(=O)Nc1cccc(OCC(=O)NS(=O)(=O)c2ccc(Cl)cc2)c1 | 12.2% |
| O=C(CSc1nnc(SCc2cccc3ccccc23)s1)N=Nc1c(O)[nH]c2ccccc12 | 15.1% |
| CCn1c(SCC(=O)c2ccc(O)c(O)c2)nnc1-c1ccccc1OC | 0.108% |
| O=C(CSc1nnc(COc2ccccc2Cl)o1)NC(=O)NC1CCCC1 | 7.23% |
| COc1ccc(C(=O)CN2C(=O)NC(C)(c3ccccc3)C2=O)cc1OC (stereo not shown) | 3.32% |
| O=C(COc1ccc([N+](=O)[O-])cc1)Nc1ccccc1C(=O)NC1CC1 | 9.83% |
| Cc1ccccc1NC(=O)COc1ccc(S(=O)(=O)N2CCCC2)cc1C | 15% |
| COCC(=O)N1CCCC(N(C)CCc2ccc(OC)c(OC)c2)C1 (stereo not shown) | 14.6% |
| O=C(CC1Sc2ncnn2C1=O)Nc1ccc(Br)cc1 (stereo not shown) | 8.98% |
| CCc1cc2cc(C)cc(C)c2nc1SCC(=O)N1CCCC1 | 14.9% |
| O=C(CO/N=C/c1ccc2c(c1)OCO2)Nc1cccc(Br)c1 | 10.7% |
| Cc1c(C(=O)NCc2ccccn2)oc2ccccc12 | 9.86% |

| Compound | hERG current change (%, negative = inhibition) at 1uM |
| --- | --- |
| O=C1c2cccc3cccc(c23)C(=O)N1OS(=O)(=O)c1ccc(Br)cc1 | 12.3% |
| COc1cc(OC)c(S(=O)(=O)Nc2ccccc2N2CCCCC2)cc1NC(C)=O | 14.7% |
| COC(=O)c1ccccc1NC(=O)c1cc(C)no1 | 15.6% |
| O=C(CN1C(=O)c2ccccc2S1(=O)=O)c1ccc(F)c(F)c1 | 7.38% |
| Cc1nn(Cc2ccccc2)c(Cl)c1/C=C/C(=O)OCC(=O)N(C)C1CCS(=O)(=O)C1 (stereo not shown) | 11% |
| O=C(NCc1ccco1)c1ccccc1NS(=O)(=O)c1ccc(Br)s1 | 2.22% |
| C[C@H]1C(=O)N(C)CCN1Cc1cn(C)nc1-c1ccc(Oc2ccccc2)cc1 | 4.43% |
| S=C(NCc1ccncc1)Nc1ccccc1 | 7.34% |
| O=C/C=C/c1coc2ccc3ccccc3c2c1=O | 14.9% |
| O=C(CSc1nc2ccccc2o1)NC1CCCC1 | 3.13% |
| CCC(C)[C@H](NC(=O)[C@H](Cc1ccccc1)n1c(=O)[nH]c2ccccc2c1=O)C(=O)NCC1CCC(C(=O)O)CC1 (stereo partly shown) | 14.5% |
| O=C(c1cccc(NS(=O)(=O)c2cccc([N+](=O)[O-])c2)c1)N1CCOCC1 | 4.34% |
| NC(=O)CSc1nc2ccccc2c(=O)n1CCc1ccccc1 | 7.56% |
| O=C(NNc1c2ccccc2nc2ccccc12)c1cccc(O)c1 | 7.03% |
| Cc1ccc(C(=O)Nc2cccnc2Cl)cc1Cl | 15.7% |
| Cc1cccc(C(=O)OCC(=O)NCCCc2ccccc2)c1O | 11% |
| COc1ccc(NC(=O)c2cn(CCC#N)nc2-c2ccc(OC)c(OC)c2)cc1 | 8.84% |
| CC(C)CNC(=O)c1cccc(NC(=O)COc2ccc([N+](=O)[O-])cc2)c1 | -9.4% |
| Cc1cccc(C(=O)O/N=C(\N)Cc2ccc([N+](=O)[O-])cc2)c1 | -12.9% |
| Nn1c(Nc2ccc(Cl)cc2)nncc1=O | 16% |
| Cc1ccc(O)c(C(=O)/C=C/c2ccc3c(c2)OCCO3)c1 | 9.64% |

Source: publication PMC4336329 (PLoS ONE, 2015)
